# Measured values: paper PMC4336329 (PLoS ONE, 2015)
# Out of some 310,000 compounds screened, about 14,000 (4.5%) showed an effect of 50% or more. The effect is printed as a negative number. The list shows a part of the results.
# Molecular target: human ether-à-go-go-related gene (hERG) potassium channel (human, UniProt Q12809)
# Assay: primary screen, population patch clamp on CHO cells stably expressing hERG
# 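Further: peak tail current of the secondary pulse compared with the same well before compound.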
# Chain of human ether-à-go-go-related gene (hERG) potassium channel (Q12809 whole entry, looked up): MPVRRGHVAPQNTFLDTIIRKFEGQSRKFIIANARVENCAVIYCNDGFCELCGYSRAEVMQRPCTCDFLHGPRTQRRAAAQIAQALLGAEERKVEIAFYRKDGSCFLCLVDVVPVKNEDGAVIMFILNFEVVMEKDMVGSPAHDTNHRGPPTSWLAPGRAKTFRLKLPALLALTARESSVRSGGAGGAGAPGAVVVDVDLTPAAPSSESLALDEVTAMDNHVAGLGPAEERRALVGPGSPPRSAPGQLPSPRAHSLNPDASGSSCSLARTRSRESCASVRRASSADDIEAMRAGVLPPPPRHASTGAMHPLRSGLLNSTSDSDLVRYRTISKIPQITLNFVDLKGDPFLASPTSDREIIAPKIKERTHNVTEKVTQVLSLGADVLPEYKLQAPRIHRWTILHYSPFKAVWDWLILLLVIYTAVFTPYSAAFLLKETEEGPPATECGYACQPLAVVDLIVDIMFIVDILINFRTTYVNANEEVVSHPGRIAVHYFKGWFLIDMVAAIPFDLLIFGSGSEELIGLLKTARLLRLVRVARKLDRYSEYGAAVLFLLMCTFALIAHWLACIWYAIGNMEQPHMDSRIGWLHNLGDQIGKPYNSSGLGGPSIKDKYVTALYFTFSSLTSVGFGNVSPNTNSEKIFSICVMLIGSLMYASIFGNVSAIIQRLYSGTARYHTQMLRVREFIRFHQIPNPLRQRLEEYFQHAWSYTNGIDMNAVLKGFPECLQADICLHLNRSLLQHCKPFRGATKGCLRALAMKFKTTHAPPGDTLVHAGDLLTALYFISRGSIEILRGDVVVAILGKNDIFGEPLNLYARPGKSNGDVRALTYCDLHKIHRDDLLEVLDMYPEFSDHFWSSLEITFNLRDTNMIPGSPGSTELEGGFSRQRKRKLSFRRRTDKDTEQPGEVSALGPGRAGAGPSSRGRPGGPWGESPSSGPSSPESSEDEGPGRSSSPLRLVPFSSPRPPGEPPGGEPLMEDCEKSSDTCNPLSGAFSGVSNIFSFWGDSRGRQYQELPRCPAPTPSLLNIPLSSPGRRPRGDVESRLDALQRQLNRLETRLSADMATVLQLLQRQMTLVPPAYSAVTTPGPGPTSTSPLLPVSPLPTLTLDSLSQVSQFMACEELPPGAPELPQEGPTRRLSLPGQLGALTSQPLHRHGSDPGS
row,SMILES,"hERG current change (%, negative = inhibition) at 10uM [%]"
1,COc1cc(C(=O)NCc2cn3cccc(C)c3n2)cc(OC)c1OC,-9.39
2,O=C(CN1CCOc2ccccc21)NC1CCCCCCC1,-1.87
3,COc1ccc(C(=O)Nc2cc(-c3ccccc3)nn2-c2ccccc2F)cc1,-7.4
4,O=C(CN1C(=O)c2ccc([N+](=O)[O-])cc2C1=O)Nc1cc(S(=O)(=O)N2CCOCC2)ccc1Cl,-60.8
5,CCOC(=O)C1(Cc2cccc(OC)c2)CCCN(Cc2c(C)nn(C(C)C)c2C)C1 (stereo not shown),-10.1
6,C=CCc1cccc2cc(C(=O)NNC(=O)c3ccncc3)c(=O)oc12,9.91
7,COc1ccccc1CN1CN(S(=O)(=O)c2ccccc2)c2nc3ccccc3nc21,8.16
8,CC(Sc1nc2ccccc2c(=O)n1Cc1ccco1)C(=O)c1ccccc1 (stereo not shown),-53.9
9,O=C1CC(N2CCN(c3ccccc3O)CC2)C(=O)N1Cc1ccccc1 (stereo not shown),5.48
10,CCOC(=O)c1c(NC(=O)COC(=O)Cn2cnc3c2c(=O)n(C)c(=O)n3C)sc(C)c1CC,1.03
11,Nc1ccc2nc(-c3cccs3)[nH]c2c1,-3.71
12,CCOC(=O)C(CC)Sc1ccc2nnc(CCNS(=O)(=O)c3ccccc3)n2n1 (stereo not shown),-32.2
13,CC(=O)c1ccc(NC(=S)N2C(C)CCCC2C)cc1 (stereo not shown),2.08
14,CCC(c1ccc(C)cc1)N1C(=O)C2C3CCC(O3)C2C1=O (stereo not shown),10.2
15,Cc1cccc(-c2nnc3n2N=C(c2ccc(Br)cc2)CS3)c1,-9.44
16,CC1CCCCN1C(C(=O)O)c1ccccc1.Cl (stereo not shown),18.9
17,COc1cc(/C=N/NS(=O)(=O)c2ccc(C)c([N+](=O)[O-])c2)ccc1O,10.9
18,O=C(CN(C(=O)c1csnn1)c1ccccc1Cl)NCCc1ccccc1,-3.87
19,CCOc1ccc(N2C(=O)C3C(c4ccc(O)cc4)NC(CCSC)(C(=O)OC)C3C2=O)cc1 (stereo not shown),-12.3
20,COc1ccc(C(=O)Nc2ccnn2C2CCN(Cc3ccc4nonc4c3)CC2)cc1,-43.1
21,Cc1onc(-c2ccccc2)c1C(=O)OCc1nnc(-c2ccccc2)o1,-15.6
22,Cc1ccc(S(=O)(=O)N2CCOCC2)cc1C(=O)Nc1ccncc1,-35.2

row,SMILES,"hERG current change (%, negative = inhibition) at 10uM [%]"
1,CC(=O)OCC1=C(C(=O)O)N2C(=O)C(NC(=O)c3ccc(COc4cccc(Cl)c4Cl)o3)C2SC1 (stereo not shown),14.4
2,Cc1cccc(C(=O)Nc2ccc(C(=O)c3ccccc3)cc2)c1,-1.47
3,COC(=O)Cc1cc(=O)oc2cc(OC)ccc12,-0.331
4,Cc1cccc(OCc2nnc(SCC(=O)N3c4ccccc4CCc4ccccc43)o2)c1,-0.133
5,CSCCC(NS(=O)(=O)c1ccc(C)cc1)C(=O)NCCc1c[nH]c2ccccc12 (stereo not shown),-13.9
6,CSc1nc(N(C)NC(=O)c2ccc(Cl)cc2)c2ccccc2n1,2.16
7,O=S(=O)(/N=C(/c1ccc(Cl)cc1)N1CCOCC1)c1ccc(Cl)cc1,-23
8,Fc1ccc(-c2nnc(CN3CCN(c4ncc(C(F)(F)F)cc4Cl)CC3)o2)cc1,-45.4
9,Cc1ccsc1/C=C(\C#N)C(=O)NCc1cccnc1,-27.5
10,O=C(NCCCN1CCCC1=O)NC1CCCCC1,10.9
11,CCNc1nc(OCCNS(=O)(=O)c2cc(C)ccc2C)nc(N(C)C)n1,-12.1
12,CC(NC(=O)c1cccc(S(=O)(=O)N2CCN(C)CC2)c1)c1ccc(Cl)cc1Cl (stereo not shown),-42.5
13,COc1ccc(CCNc2nc(C)nc3c2oc2ccccc23)cc1OC,-19.3
14,Cc1ccc(-c2csc(N(CCO)CCCn3c(C(F)(F)F)nc4ccccc43)n2)cc1,17.6
15,CCOC(=O)Nc1ccc2c(c1)N(C(=O)CCN(C)C)c1ccccc1CC2,-40.7
16,COC(=O)C1CCN(C(=O)COC(=O)c2cc(-c3cccs3)nn2-c2ccccc2)CC1,-37.6
17,O=C(CN1C(=O)c2ccccc2S1(=O)=O)N1CCCCC1,9.53
18,O=C(Nc1ccccc1C(=O)N1CCN(CCO)CC1)c1cccc([N+](=O)[O-])c1,7
19,C=CCn1c(SCC(=O)N2N=C(c3ccco3)CC2c2ccco2)nnc1-c1ccncc1 (stereo not shown),-41.1
20,O=C(CCC1N=C2c3ccccc3N=C(SCc3ccc(Cl)cc3)N2C1=O)NCc1ccco1 (stereo not shown),-52
21,CCOC(=O)N1CCN(C(=O)C2CCCN(S(=O)(=O)c3c(C)cc(C)cc3C)C2)CC1 (stereo not shown),-18.2
22,COc1cccc2c1Oc1cc([N+](=O)[O-])cc(N(C)C(C)=O)c1C=C2,-6.53

row,SMILES,"hERG current change (%, negative = inhibition) at 10uM [%]"
1,CN(C)c1cc(-c2ccc(C#N)cc2)oc(=O)c1Cl,-50.1
2,CCn1c2ccc(OC)cc2c2nc3ccccc3nc21,-5.6
3,O=C(Cn1cc2c(n1)CCCCC2)N1CCc2ccccc21,13.7
4,CN(CC(=O)Nc1ccc(F)cc1)C(=O)COC(=O)Cc1cccs1,-16.7
5,O=C(Nc1ccccc1OC(F)F)c1cccc(S(=O)(=O)N2CCCC2)c1,-23.6
6,Cc1cc(N2CCN(c3ccccn3)CC2)n2nc(C)nc2n1,-51.4
7,O=C(COC(=O)CNC(=O)c1ccc2c(c1)OCO2)Nc1ncc(Cl)cc1Cl,-29.4
8,CCOCCCn1c(SCC(=O)NC(C)C)nc2ccccc2c1=O,-23.1
9,Cc1cc(C)cc(NC(=O)Nc2cccc(S(N)(=O)=O)c2)c1,-34
10,O=S(=O)(c1ccccc1F)N1CCN(Cc2cc3c(cc2Br)OCCO3)CC1,0.385
11,COC(=O)C1=C(C)N(Cc2ccco2)C(=O)C1,1.28
12,O=S(=O)(c1ccccc1C(F)(F)F)N1CCN(S(=O)(=O)c2ccccc2C(F)(F)F)CC1,-2.32
13,O=C(NC1CCCN(CCc2ccccc2)C1)c1c[nH]c2ccccc12 (stereo not shown),-68.2
14,CCSc1nncn1/N=C/c1ccc(OC)c(OC)c1,0.939
15,COc1ccc(O)c(C(=O)c2cnc3c(c2)c(=O)[nH]c(=O)n3C)c1,1.77
16,O=C(NCc1nc2ccccc2[nH]1)C1=C[C@H](c2ccc3c(c2)OCO3)C[C@H](OCc2ccc(CO)cc2)O1,-22.4
17,CCOC(=O)c1sc(C)c2c(=O)n(CCCN3CCOCC3)cnc12,3.91
18,C[C@H](NC(=O)c1nc[nH]c1C(=O)N[C@@H](Cc1ccccc1)C(=O)OC(C)(C)C)C(=O)OC(C)(C)C,-6.8
19,COc1cccc(N2C(=O)/C(=C/c3ccc(C)o3)C(=O)NC2=S)c1,15
20,COc1ccccc1C(=O)NN(C)C1=NS(=O)(=O)c2ccccc21,22.1
21,Cn1c(SCCN2CCCC2)nnc1C1CCN(S(=O)(=O)c2ccc(F)cc2)CC1,-2.27
22,COc1cccc(Nc2nc(N)c([N+](=O)[O-])c(NCc3ccco3)n2)c1,-12.8

row,SMILES,"hERG current change (%, negative = inhibition) at 10uM [%]"
1,CN(Cc1ccccc1)CC(O)COc1ccc(CNCc2nccn2C)cc1 (stereo not shown),-72.5
2,CCCCc1c(O)nc(SCC(=O)N2CCCCCC2)[nH]c1=O,1.3
3,O=C(CSC1=NS(=O)(=O)c2ccccc2N1)Nc1ccc(F)cc1,3.55
4,Cc1cccc(/C=C2\Sc3ccc(C(=O)N4CCC(C)CC4)cc3N(C)C2=O)c1,0.637
5,COc1cccc(-c2cc(C(=O)N3CCCc4ccccc43)no2)c1,-13.6
6,Cc1c(C(=O)Nc2c(C)n(C)n(-c3ccccc3)c2=O)oc2ccccc12,15.8
7,O=C(COc1cccnc1[N+](=O)[O-])N1CCN(S(=O)(=O)c2ccc3ccccc3c2)CC1,-25.1
8,CCCc1nc2ccccc2n1C(=S)SC,12.8
9,CC1CCN(c2ccc([N+](=O)[O-])cc2C(=O)NCC2CCCO2)CC1 (stereo not shown),-8.39
10,CCn1c(/C=C/c2c[nH]c3ccccc23)nc2ccccc2c1=O,20.5
11,CCCN(C(=O)Cc1nc(N)n[nH]1)C1(C(=O)Nc2ccccc2C)CCCCC1,9.86
12,CCOC(=O)c1cnc2c(-c3ccccc3OC)c(C)nn2c1C,12.6
13,CC(C)CCNC(=O)c1cc(C(=O)c2cc(Br)ccc2O)cn(CCC(C)C)c1=O,16.8
14,CCC(C)(C)n1nnnc1C(c1ccccn1)N1CCOCC1 (stereo not shown),-6.99
15,COc1ccc(CN2C(=NC(=O)C3CCCO3)SC3CS(=O)(=O)CC32)cc1OC (stereo not shown),16.8
16,CCOc1ncccc1C(=O)N(CC)CC(=O)NCc1ccc(F)cc1,7.12
17,COc1ccccc1-c1nnc(SCC(=O)c2c(N)n(C3CC3)c(=O)[nH]c2=O)n1C,9.95
18,COC(=O)Cn1cc(C(=O)C(F)(F)F)c2ccccc21,20
19,CCOc1cc(S(=O)(=O)NCc2ccccn2)ccc1Cl,-11.5
